# From PubChem BioAssay AID1631 (National Center for Advancing Translational Sciences (NCATS), 2009)
# Out of some 260,000 compounds screened, about 890 (0.34%) were called active. Inconclusive results, whose numbers are uncertain, are shown with a selection of clear calls. Calls come from the whole dose curve; as a rule, active = well fitted activation curve with a large enough effect; inconclusive = small, poorly fitted or top-dose-only effect; inactive = no such curve, though single readings can be large or run the other way. No potency is given beside an inconclusive call; the fits are too rough.
# Target: Pyruvate kinase PKM (Homo sapiens) (UniProt P14618)
# Chain of UniProt P14618 (P14618 whole entry, looked up, canonical isoform): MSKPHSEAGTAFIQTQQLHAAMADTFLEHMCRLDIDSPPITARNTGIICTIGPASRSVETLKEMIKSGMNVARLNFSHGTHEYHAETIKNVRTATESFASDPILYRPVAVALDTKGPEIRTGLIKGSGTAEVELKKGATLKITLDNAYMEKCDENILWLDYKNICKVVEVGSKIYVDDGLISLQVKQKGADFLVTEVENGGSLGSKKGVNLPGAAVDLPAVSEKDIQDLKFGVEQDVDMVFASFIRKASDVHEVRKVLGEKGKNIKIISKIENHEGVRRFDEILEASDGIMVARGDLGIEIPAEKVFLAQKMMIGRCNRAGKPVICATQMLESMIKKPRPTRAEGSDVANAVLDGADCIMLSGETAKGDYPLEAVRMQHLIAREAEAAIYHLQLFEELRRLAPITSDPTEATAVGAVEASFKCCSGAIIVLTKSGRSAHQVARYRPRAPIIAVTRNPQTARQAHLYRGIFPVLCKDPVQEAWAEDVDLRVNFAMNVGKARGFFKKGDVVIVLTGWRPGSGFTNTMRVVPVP
# Test: qHTS Assay for Activators of Human Muscle isoform 2 Pyruvate Kinase; note: nearly all actives have a fitted effect of over 55% in size
# Conditions: purified PKM2, Kinase-Glo ATP luminescence; Potency: activation; activation: at 57.5 µM (top of the series), 0% is enzyme alone, no compound
# Procedure, shortened: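 hPK-M2, >95% pure; 0.1 mM ADP / 0.5 mM PEP final; imidazole pH7.2 buffer w/ 7 mM MgCl2, 50 mM KCl; 1 h RT; Kinase-Glo lum. Intermediate enzyme activity for dual inhibitor/activator qHTS.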
# Potency is the fitted concentration of half-maximal effect; tags give direction and shape of the fitted curve.
row,Compound,Potency
1,CCOC(=O)c1cnc(SCC(=O)Nc2cccc(OC)c2)nc1N,"inconclusive [rising, full curve]"
2,CN(C)c1nc(=NCc2ccco2)ss1,inactive
3,O=C1C(=O)N(Cc2ccco2)C(c2cccc(Cl)c2)/C1=C(\O)c1ccc2c(c1)OCCO2 (stereo unspecified),"inconclusive [rising, single point]"
4,Cc1[nH]n2c(=O)c3c(nc2c1-c1ccccc1)CCC3,inactive
5,C=CC1=C(C(=O)O)N2C(=O)C(NC(=O)Cc3ccccc3)C2SC1 (stereo unspecified),"inconclusive [rising, partial curve]"
6,CCOC(=O)c1c(-c2cccs2)csc1NC(=O)CSc1ncn[nH]1,active: 28.2 µM
7,CC(C)c1ccc(S(=O)(=O)c2cc3cc(Br)ccc3oc2=O)cc1,active: 0.562 µM
8,CCCCCOC(=O)Nc1ccc(S(=O)(=O)Nn2cnnc2)cc1,active: 4.47 µM
9,Cc1ccc(S(=O)(=O)N2CCC(=O)N(CCOCc3cccc(F)c3)CC2)cc1,"inconclusive [rising, single point]"
10,Cc1ccc(/C(N)=N/OC(=O)Cc2cccc3ccccc23)cc1,active: 25.1 µM
11,O=C(NC1CCCCCC1)C(=S)NCc1ccccc1,inactive
12,O=C(Nc1ccc(S(=O)(=O)N2CCCC2)cc1)c1cccs1,inactive
13,CCN(CC)CC(=O)Nc1ccc(C)cc1C(=O)c1ccccc1,"inconclusive [rising, single point]"
14,COC(=O)c1cc(NC(=O)CC2SCCNC2=O)cc(C(=O)OC)c1 (stereo unspecified),"inconclusive [rising, single point]"
15,Cc1cc(C)cc(NC(=O)c2cc(Cl)sc2Cl)c1,inactive
16,CCc1cc(=O)[nH]c(-n2[nH]c(-c3ccccc3)cc2=O)n1,"inconclusive [rising, single point]"
17,COc1cc(CC2COC(c3ccc(O)c(OC)c3)C2COC(C)=O)ccc1O (stereo unspecified),"inconclusive [rising, partial curve]"
18,CCOC(=O)c1c(C)[nH]c(-c2csc(N)n2)c1C,"inconclusive [rising, single point]"
19,C/C(CC(=O)NCc1ccc(F)cc1)=N\NC(N)=S,inactive
20,COc1cccc(NS(=O)(=O)c2c(C)nc3sccn3c2=O)c1,"inconclusive [rising, partial curve]"
21,CC1CCCC(C)N1C(=O)Cn1cc(C#N)c2ccccc21 (stereo unspecified),"inconclusive [rising, single point]"
22,COc1ccc(S(=O)(=O)N2CCN(CC3CC=CCC3)CC2)cc1 (stereo unspecified),inactive
23,Cc1ccc(/C=c2\sc3n(c2=O)CN(c2ccc(Br)cc2)CN=3)o1,"inconclusive [rising, full curve, poor fit]"
24,COc1cccc(CNC(=O)CCC2CCCN(C(=O)c3ccc(OC)o3)C2)c1 (stereo unspecified),"inconclusive [rising, single point]"
25,COC(=O)C1=C(C)N(Cc2ccccc2)C(=S)N[C@H]1c1ccccc1,"inconclusive [rising, single point]"
26,O=C(NCc1ccccc1F)C1CCN(S(=O)(=O)c2ccccc2)CC1,"inconclusive [rising, partial curve]"

row,Compound,Potency
1,COc1ccc(S(=O)(=O)N(C)C)cc1NC(=O)CSc1nc(N)cc(N)n1,"inconclusive [rising, single point]"
2,Cc1nc(NCc2cccnc2)c2c3c(sc2n1)CC(C)CC3 (stereo unspecified),"inconclusive [rising, partial curve]"
3,O=C(Nc1cccc2ccccc12)N1CCN(c2ccc(F)cc2)CC1,"inconclusive [rising, single point]"
4,CCC(=O)N(CC)C1=C(O)c2ccccc2C(=O)C1=O,"inconclusive [rising, single point]"
5,COc1ccc(S(=O)(=O)c2cnc3ccccc3n2)cc1,"inconclusive [rising, single point]"
6,Cn1ncc(Cl)c1C(=O)N1CCC(Cc2ccccc2)CC1,active: 22.4 µM
7,CC1=NN(CCC#N)C(=O)/C1=C/c1ccc(N(C)C)cc1,inactive
8,Cc1nc2ccc(NC3=NCCCCC3)cc2s1,inactive
9,CCc1ccc(/C=C2\CN(CC)Cc3c2nc2ccccc2c3C(=O)O)cc1,active: 12.6 µM
10,Nc1ccc2nc(Cc3ccccc3)[nH]c2c1,"inconclusive [rising, single point]"
11,COc1ccc(CC(=O)NCc2nn(-c3ccccc3)nc2C)cc1OC,"inconclusive [rising, single point]"
12,O=C(CSc1nc2ccccc2s1)Nn1cnnc1,"inconclusive [rising, single point]"
13,O=S(=O)(c1ccccc1)N1CCN(CC(O)COc2ccc3c(c2)CCC3)CC1 (stereo unspecified),"inconclusive [rising, partial curve]"
14,CCOC(=O)C(=Cc1cc(=O)c(OC)co1)C(=O)OCC,"inconclusive [rising, partial curve]"
15,c1cc(-n2cnnn2)ccc1NC1=NCCC1,"inconclusive [rising, single point]"
16,Cc1cccc(NC(=O)c2ccccc2NC(=O)C2CCCCC2)c1C,active: 28.2 µM
17,Nc1[nH]n(-c2ccccc2)c(=O)c1N=Nc1ccc2c(c1)OCCO2,inactive
18,Cc1nc(NC(=O)CSc2nnnn2Cc2ccccc2)sc1C,"inconclusive [rising, single point]"
19,CCOc1ccc(NC(=O)CSc2ncn[nH]2)c([N+](=O)[O-])c1,active: 15.8 µM
20,CC1CCN(C(=O)C(C)Sc2nc(-c3ccccc3)cc(C(F)(F)F)n2)CC1 (stereo unspecified),inactive
21,CCC1Oc2ccc(C)cc2N(CC(=O)N(Cc2ccc(C)o2)C2CCCC2)C1=O (stereo unspecified),"inconclusive [rising, full curve]"
22,Fc1ccc(CNC(=S)Nc2cccc(C(F)(F)F)c2)cc1,inactive
23,COc1ccccc1-c1cc(C(=O)N/N=C/c2ccoc2)c2ccccc2n1,inactive
24,O=C(NCc1cccs1)c1ccccc1,inactive
25,O=C(CNS(=O)(=O)c1cccc(Cl)c1)Nc1ccc(-c2nc3ccccc3s2)cc1,inactive
